One assay has as its target EGFP-tagged RUNX1 (UniProt Q01196). As to the kind of experiment: co-IP; GFP beads on lysates of cells overexpressing the constructs ('GFP-pulldown assay'), western blot; HEK293T stated for Figure 5a and 5b, cells not stated for 5e, 5f, 5h.
Another assay concerns the target GFP-tagged FLAGHA-STAT3 (UniProt P40763). Described as above.
The target in assay [1] is endogenous STAT3 (Jurkat) (human (endogenous in Jurkat)) (UniProt P40763). Briefly: co-IP; endogenous proteins, Jurkat cell lysates, immunoprecipitated with the indicated antibodies, western blot.

Chains of the proteins cited; added tags and fusions are not shown. Lines headed by an entry give the natural chain unless they say otherwise; changes in a name come on top.
UniProt Q01196: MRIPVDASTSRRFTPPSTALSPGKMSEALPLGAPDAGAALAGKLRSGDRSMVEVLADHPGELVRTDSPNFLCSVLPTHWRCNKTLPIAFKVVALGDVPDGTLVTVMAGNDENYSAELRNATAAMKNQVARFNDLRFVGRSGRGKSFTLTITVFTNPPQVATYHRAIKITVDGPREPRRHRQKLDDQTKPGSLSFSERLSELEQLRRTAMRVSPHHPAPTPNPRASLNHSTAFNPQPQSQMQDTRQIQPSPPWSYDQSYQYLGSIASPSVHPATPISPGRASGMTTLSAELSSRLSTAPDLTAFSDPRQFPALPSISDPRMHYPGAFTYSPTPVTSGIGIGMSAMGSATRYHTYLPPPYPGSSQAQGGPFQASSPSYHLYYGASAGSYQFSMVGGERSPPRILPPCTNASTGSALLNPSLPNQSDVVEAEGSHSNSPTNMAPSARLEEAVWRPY
UniProt P40763: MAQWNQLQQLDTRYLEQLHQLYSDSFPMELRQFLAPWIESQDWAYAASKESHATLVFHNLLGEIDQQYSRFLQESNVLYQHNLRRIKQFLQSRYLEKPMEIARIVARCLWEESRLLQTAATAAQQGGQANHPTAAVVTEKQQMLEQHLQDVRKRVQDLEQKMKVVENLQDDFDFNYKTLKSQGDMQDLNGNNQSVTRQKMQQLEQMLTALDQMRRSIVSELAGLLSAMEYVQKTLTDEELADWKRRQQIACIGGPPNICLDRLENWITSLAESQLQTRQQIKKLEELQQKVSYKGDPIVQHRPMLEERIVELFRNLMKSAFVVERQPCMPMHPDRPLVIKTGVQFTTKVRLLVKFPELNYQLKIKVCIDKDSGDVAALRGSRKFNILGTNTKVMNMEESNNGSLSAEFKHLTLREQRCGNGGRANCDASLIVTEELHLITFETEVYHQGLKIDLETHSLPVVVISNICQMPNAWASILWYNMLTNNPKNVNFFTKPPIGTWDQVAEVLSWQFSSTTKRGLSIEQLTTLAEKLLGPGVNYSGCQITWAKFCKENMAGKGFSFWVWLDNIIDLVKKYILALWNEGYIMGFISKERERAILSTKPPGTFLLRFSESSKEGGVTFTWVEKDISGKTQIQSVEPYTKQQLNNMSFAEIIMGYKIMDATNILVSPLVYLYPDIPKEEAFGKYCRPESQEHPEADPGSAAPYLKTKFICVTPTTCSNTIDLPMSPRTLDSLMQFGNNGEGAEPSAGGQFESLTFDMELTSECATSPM

Results are given in words; binding and its absence hold for the method and conditions named. Binding seen in cells or lysates may run through a third protein. Some binding calls cover weakened binding; strength is not graded here.

On to “STAT3^1-600 (from UniProt P40763 1-600) (domain or fragment)”, for which, in the assay with EGFP-tagged RUNX1, the binding result is given as “binds”.

Consider “RUNX1 (overexpressed, full-length) (from UniProt Q01196 1-453)”, for which, in the assay with GFP-tagged FLAGHA-STAT3, the binding result is recorded as “binds”.

Regarding “STAT3^1-514 (from UniProt P40763 1-514) (domain or fragment)”, the binding entry with EGFP-tagged RUNX1 was “binds”.

Turning to “RUNX1^Y260X (from UniProt Q01196 1-259) (domain or fragment)”, in the assay with GFP-tagged FLAGHA-STAT3, the binding result is “binds”.

Take “RUNX1 Runt domain alone (from UniProt Q01196 50-178) (domain or fragment)”: the binding entry with GFP-tagged FLAGHA-STAT3 is listed as “binds”.

Turning to “STAT3^1-309 (from UniProt P40763 1-309) (domain or fragment)”, the binding entry with EGFP-tagged RUNX1 is “no binding”.

As to RUNX1^R174Q (from UniProt Q01196 1-453), the binding entry in the assay with GFP-tagged FLAGHA-STAT3 was “binds”.

With “endogenous RUNX1 (Jurkat) (from UniProt Q01196 1-453)”, the binding entry in assay [1] is “binds”.

“endogenous STAT3 (HEK293T) (from UniProt P40763 1-770)”: the binding entry in the assay with EGFP-tagged RUNX1 was “binds”.

(Values after article PMC4742622.)
